Experimental data reported in PubChem BioAssay AID488969 (Vanderbilt High Throughput Screening Facility, 2010).
The full ranking holds about 110,000 compounds; the median of “z-score” is about -0.1, and the highest 2% start at about 2. The list shows a part of the results.

Target: Metabotropic glutamate receptor 8 (Rattus norvegicus) (UniProt P70579)
Experiment: rat mGluR8 modulators via GIRK flux, primary screen, cell-based, thallium flux, HTS (AID 488969)
Details: HEK293 rat mGluR8, GIRK (G protein-gated inwardly rectifying potassium channel) thallium flux, FluoZin2; at 10 µM; stronger effect = higher value; submaximal glutamate (EC20) added with thallium

Chain of UniProt P70579 (P70579 whole entry, looked up): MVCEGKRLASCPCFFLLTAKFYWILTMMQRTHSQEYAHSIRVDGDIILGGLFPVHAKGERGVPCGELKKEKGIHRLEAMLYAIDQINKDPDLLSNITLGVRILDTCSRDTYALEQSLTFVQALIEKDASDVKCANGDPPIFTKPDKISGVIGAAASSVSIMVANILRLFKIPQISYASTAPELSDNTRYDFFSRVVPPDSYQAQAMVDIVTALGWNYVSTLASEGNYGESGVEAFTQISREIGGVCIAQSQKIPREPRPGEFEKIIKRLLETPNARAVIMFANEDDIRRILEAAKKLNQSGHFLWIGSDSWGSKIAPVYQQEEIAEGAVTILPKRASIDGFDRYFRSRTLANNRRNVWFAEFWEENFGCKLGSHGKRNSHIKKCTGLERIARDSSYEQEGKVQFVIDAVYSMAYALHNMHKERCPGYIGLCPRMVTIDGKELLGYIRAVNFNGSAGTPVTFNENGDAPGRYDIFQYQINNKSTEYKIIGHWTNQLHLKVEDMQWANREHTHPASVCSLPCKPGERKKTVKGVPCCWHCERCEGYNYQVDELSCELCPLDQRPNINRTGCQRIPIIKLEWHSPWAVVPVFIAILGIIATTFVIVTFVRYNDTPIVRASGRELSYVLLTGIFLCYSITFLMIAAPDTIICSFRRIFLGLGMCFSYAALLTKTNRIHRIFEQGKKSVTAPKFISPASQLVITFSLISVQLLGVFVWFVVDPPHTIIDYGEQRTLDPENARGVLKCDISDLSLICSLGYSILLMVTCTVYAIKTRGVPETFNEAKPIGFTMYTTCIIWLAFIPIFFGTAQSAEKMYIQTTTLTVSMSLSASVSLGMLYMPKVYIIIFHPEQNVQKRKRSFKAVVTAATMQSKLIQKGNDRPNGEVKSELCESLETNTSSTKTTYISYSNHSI

Structure (SMILES)	z-score
C=C(C)COc1ccc(-c2n[nH]c(C)c2Oc2ccccc2OC)c(O)c1	-0.505
O=C(ON=C1CCN(S(=O)(=O)c2ccccc2)CC1)c1ccc(Cl)cc1	0.309
Cc1ccsc1/C=N/NC(=O)C1CC(=O)N(c2ccccc2)C1 (stereo unspecified)	0.243
COc1cc(SC)ccc1C(=O)NCc1ccccc1	-0.277
N#CC1=C(N)NC(SCC(=O)Nc2ccccc2)=C(C#N)C12CCCCC2	-0.252
CS(=O)(=O)NCc1nnc(SCC(=O)NC2CCCCC2)n1-c1ccc(F)cc1	0.263
CS(=O)(=O)NCCOc1ccc(S(=O)(=O)N2CCCc3ccccc32)cc1	-0.169
Cc1csc2nc(CSc3nc4ccccc4o3)c(Br)n12	-0.249
COc1ccccc1N1CCN(C(=O)C2CCCO2)CC1 (stereo unspecified)	-0.173
O=C1N/C(=N/S(=O)(=O)c2ccccc2)S/C1=C/c1cccnc1	-1.23
NS(=O)(=O)c1ccc(CCNC(=O)C2CCCN(S(=O)(=O)c3cccnc3)C2)cc1 (stereo unspecified)	1.08
CC(=O)c1cccc(S(=O)(=O)NCC2CCCCC2)c1	0.0227
NC1=NC2(CCCCC2)N(c2cccc(Cl)c2)C(N)=N1	0.453
O=C(CCS(=O)(=O)c1cccc2nsnc12)NC1CCCCCC1	-0.156
C=CCNC(=O)COc1ccc(S(=O)(=O)NC2CCCCC2)cc1	-0.116
Cc1ccccc1N=C1NC(=O)CC(c2ccccc2)S1 (stereo unspecified)	-0.139

Structure (SMILES)	z-score
Clc1ccc(-n2ncc3c(NCc4ccco4)ncnc32)cc1	0.653
COc1ccc(-n2c3nc4ccccc4nc3c3c(=N)oc(C)nc32)cc1	-0.388
COc1cccc(CNC(=O)C2CCN(S(=O)(=O)c3ccccc3)CC2)c1	-0.0818
CC(=O)OCc1c(C(F)(F)F)nn(C)c1Sc1ccccc1	-0.0783
CC1(C)Cc2nc3sc4c(=O)n(Cc5ccccc5)cnc4c3cc2CS1	-0.805
C/C(=N\OCC(=O)Nn1c(C)nc2ccccc2c1=O)c1ccccc1	-0.337
Cc1ccc(Cn2nnnc2CN2CCC(NC(=O)c3ccc(Br)cc3)CC2)cc1	-0.256
O=C(CN1CCCCC1)Nc1ccccc1	0.0411
CCn1c(SCC(=O)Nc2ccc(NC(=O)c3ccco3)cc2)nnc1-c1cccs1	-0.0846
CC(C)(C)C(=O)C[n+]1ccc(C(N)=O)cc1	0.0103
CCOC(=O)N1CCN(C(=O)C2CC(=O)N(c3ccc(OC)cc3)C2c2ccc(OC)cc2)CC1 (stereo unspecified)	-0.0821
COc1ccc(-c2nc3n(c2Br)CCC3)cc1	0.254
COc1cc(NC(=O)COC(=O)/C=C/c2c(C)nn(-c3ccc(F)cc3)c2Cl)cc(OC)c1	-0.0533
COC(=O)c1sccc1NC(=O)c1ccncc1	-0.749
O=C(O)C1CCCCC1C(=O)Nc1nc(-c2cccs2)cs1 (stereo unspecified)	-1.12
